Results taken from PMC4336329 (PLoS ONE, 2015).
Out of some 310,000 compounds screened, about 14,000 (4.5%) showed an effect of 50% or more. The effect is printed as a negative number. The list shows a part of the results.

Target: human ether-à-go-go-related gene (hERG) potassium channel (human, UniProt Q12809)
Test: primary screen, population patch clamp on CHO cells stably expressing hERG
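Also: peak tail current of the secondary pulse compared with the same well before compound.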

Sequence of human ether-à-go-go-related gene (hERG) potassium channel (Q12809 whole entry, looked up): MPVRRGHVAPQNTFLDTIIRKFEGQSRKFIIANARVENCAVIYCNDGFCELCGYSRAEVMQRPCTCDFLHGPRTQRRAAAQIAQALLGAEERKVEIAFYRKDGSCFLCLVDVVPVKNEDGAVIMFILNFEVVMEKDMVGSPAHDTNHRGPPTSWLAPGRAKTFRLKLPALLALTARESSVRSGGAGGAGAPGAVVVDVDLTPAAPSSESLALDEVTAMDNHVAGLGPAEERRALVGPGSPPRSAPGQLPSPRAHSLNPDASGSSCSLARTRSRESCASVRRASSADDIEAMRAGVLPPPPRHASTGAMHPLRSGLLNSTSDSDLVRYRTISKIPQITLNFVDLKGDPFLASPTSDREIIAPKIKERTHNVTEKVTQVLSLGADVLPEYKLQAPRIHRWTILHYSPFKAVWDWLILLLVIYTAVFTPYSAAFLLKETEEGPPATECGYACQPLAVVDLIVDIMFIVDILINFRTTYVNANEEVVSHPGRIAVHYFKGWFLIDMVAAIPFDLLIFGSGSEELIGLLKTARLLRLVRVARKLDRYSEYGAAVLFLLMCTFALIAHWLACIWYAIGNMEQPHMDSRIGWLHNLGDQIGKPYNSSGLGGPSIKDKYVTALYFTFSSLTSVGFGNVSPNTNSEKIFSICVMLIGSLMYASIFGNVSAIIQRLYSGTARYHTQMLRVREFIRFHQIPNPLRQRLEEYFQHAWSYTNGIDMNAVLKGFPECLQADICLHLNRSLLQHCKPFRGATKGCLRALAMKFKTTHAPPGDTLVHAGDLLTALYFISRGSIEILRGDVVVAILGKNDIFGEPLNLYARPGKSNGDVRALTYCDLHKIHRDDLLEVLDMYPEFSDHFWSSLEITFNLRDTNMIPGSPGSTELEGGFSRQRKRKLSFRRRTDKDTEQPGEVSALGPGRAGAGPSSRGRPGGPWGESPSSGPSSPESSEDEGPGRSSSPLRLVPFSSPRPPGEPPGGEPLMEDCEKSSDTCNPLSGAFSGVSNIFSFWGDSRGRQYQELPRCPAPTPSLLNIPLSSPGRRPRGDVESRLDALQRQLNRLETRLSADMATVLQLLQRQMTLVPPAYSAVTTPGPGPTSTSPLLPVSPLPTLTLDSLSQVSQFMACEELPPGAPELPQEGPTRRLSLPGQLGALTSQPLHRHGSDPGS

Row | Structure (SMILES) | hERG current change (%, negative = inhibition) at 10uM [%]
1 | CC1(O)CC(c2ccc(Cl)cc2)=NN1C(=O)c1ccc([N+](=O)[O-])cc1 (stereo not shown) | 11.5
2 | COc1ccc(CNC(=O)C(c2ccc(C)o2)N(C(=O)c2csnn2)c2ccc(C(C)C)cc2)cc1 (stereo not shown) | -42.9
3 | O=C(CSc1ccc(Cl)cc1)NCc1ccncc1 | -14.2
4 | CC(OC(=O)c1ccc(NS(=O)(=O)c2ccc3[nH]c(=O)[nH]c3c2)cc1)C(=O)Nc1cccc(Cl)c1Cl (stereo not shown) | 11.1
5 | CCOc1ccc(C(=O)O/N=C(\N)c2ccccn2)cc1 | 24.7
6 | CC(CC(=O)OCC(=O)Nc1ccc2[nH]c(=O)[nH]c2c1)c1ccccc1 (stereo not shown) | 4.41
7 | Cc1ccc2nc(-c3cccc(S(=O)(=O)N4CC(C)OC(C)C4)c3)cn2c1 (stereo not shown) | -11.8
8 | CCCNC(=O)CN1C(=O)c2ccccc2Sc2ncccc21 | 9.33
9 | Cc1n[nH]c(=O)nc1NCc1ccccc1Cl | 3.23
10 | COc1ccc(NS(=O)(=O)c2ccc(S(=O)(=O)N3CCOCC3)cc2)cc1 | -41.8
11 | CN(CC(=O)OCC(=O)NC(=O)c1cccn1C)S(=O)(=O)c1ccc(Cl)cc1 | 10.1
12 | Cc1nc2sccc2c(=O)n1-c1ccccc1Cl | 5.16
13 | CN1CCN(c2ccc([N+](=O)[O-])c(Sc3nncn3C)c2)CC1 | -9.71
14 | CC(=O)c1c(C)[nH]c(C(=O)CSc2nnc(-c3ccc(Cl)cc3)n2CC2CCCO2)c1C (stereo not shown) | -25.9
15 | Cl.O=C(c1ccco1)N1CCN(CCOc2ccc(F)cc2)CC1 | -47.4
16 | Cc1cc(C)cc(NS(=O)(=O)Cc2ccccc2)c1 | -7.38
17 | Cc1ccc(C(=O)N/N=C/c2ccc([N+](=O)[O-])s2)cc1 | 10.7
18 | COCCNC(=O)CCSc1nc(-c2ccc(OC)cc2)cc(C(F)(F)F)n1 | -4.81
19 | Cc1ccc(S(=O)(=O)/N=C(\N)Nc2nc(C)c3ccc(C)cc3n2)cc1 | -23.2
20 | Cc1cc(C)c2nc(N(CCN(C)C)C(=O)c3ccc(S(=O)(=O)N(C)CC4CCCO4)cc3)sc2c1.Cl (stereo not shown) | -43.6
21 | O=S(=O)(c1ccc(Cl)cc1)c1ccccn1 | -2.49
22 | Cc1ccc(CNC(=O)C2CCC(=O)N2C2CCCCC2)cc1 (stereo not shown) | 9.79

Row | Structure (SMILES) | hERG current change (%, negative = inhibition) at 10uM [%]
23 | C(=N\NC1=Nc2cccc3cccc1c23)/c1cccnc1 | -5.08
24 | CCCc1[nH]n(-c2nc3ccccc3s2)c(=O)c1C=NCC1CCCO1 (stereo not shown) | -65.5
25 | CCN1CCN(C(=O)Cc2ccc(C)cc2)CC1 | 15.9
26 | CC(C)CN(C(=O)CCC(=O)OC(C)C(=O)Nc1cccc(C#N)c1)c1c(N)n(CC(C)C)c(=O)[nH]c1=O (stereo not shown) | 17.2
27 | Cc1ccc(N=C2S/C(=C/c3cccc(OCC(=O)O)c3)C(=O)N2C)cc1C | 20.5
28 | Cc1ccc(NC(=O)c2cc(C(=O)Nc3ccc(C)cc3)n(C)n2)cc1 | 7.29
29 | O=C(N/N=C/c1ccc([N+](=O)[O-])o1)C1CCCC1 | 10.6
30 | Cn1nc(C(C)(C)C)cc1C(=O)NNC(=O)c1ccc(C(F)(F)F)cc1 | 9
31 | Cc1cc(C)c2cc(CN(CCO)C(=O)NC3CCCCC3)c(=O)[nH]c2c1 | -3.62
32 | CCC(=NCC1CCCO1)c1c(O)n(-c2ccc(Cl)cc2)c(=O)[nH]c1=O (stereo not shown) | 4.76
33 | CCn1c(SCC(=O)Nc2c(C)n(C)n(-c3ccccc3)c2=O)nnc1-c1cccc(C)c1 | 28.9
34 | O=C(CNC(=O)c1[nH]cnc1C(=O)NC(c1ccccc1)c1ccccc1)OCc1ccccc1 | 13.2
35 | CN(CC(=O)NCC(=O)Nc1ccc(F)cc1)C1CCS(=O)(=O)C1 (stereo not shown) | 13.3
36 | CN(CCCN1CCOCC1)Cc1cn(C)nc1-c1ccccc1F | -6.99
37 | CC(C)c1cc(C(=O)N2CCCC(N3CCN(c4ccccc4F)CC3)C2)nc(N)n1 (stereo not shown) | -21.2
38 | COc1ccc(C(CNC(=O)c2ccc(NS(=O)(=O)c3cccc([N+](=O)[O-])c3)cc2)N2CCOCC2)cc1 (stereo not shown) | 15.1
39 | O=C(Nc1nnc(SCc2ccc(Cl)cc2)s1)c1cnccn1 | -6.91
40 | O=c1cc(-c2ccccc2)nc(/C=C/c2ccccc2)[nH]1 | 5.21
41 | Cc1nnc(NCc2ccco2)c2ccccc12 | -17.1
42 | COC(=O)C1=C(C(=O)OC)[C@@H]2Nc3ccccc3[C@@]23C[C@@H](C(=O)OC)N(C(=O)CC(C)C)C3=N1 | -10.7
43 | CS(=O)(=O)NCCSc1cc(C(F)(F)F)nc2ccccc12 | -2.35
